The values that follow come from article PMC9911399, “Two distinct binding modes provide the RNA-binding protein RbFox with extraordinary sequence specificity”.

First the molecules themselves.
T1: RBFOX1 RRM (Homo sapiens, UniProt Q9NWB1 109-208)
T1 sequence: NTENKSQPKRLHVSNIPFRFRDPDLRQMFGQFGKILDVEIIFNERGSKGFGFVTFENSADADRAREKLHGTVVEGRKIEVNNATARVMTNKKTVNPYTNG

B1: UCGCCUA (DNA:RNA)
RNA: GGGAGACCGGAAUUCAGAUUGUCCUCGCCUAUUAAAUCCCGUCGUAGCCACCA
DNA 1: CAATCTGAATTCCGGTCTCCC
DNA 2: TGGTGGCTACGACGGGATT
B2: GGUUGAU (DNA:RNA)
RNA: GGGAGACCGGAAUUCAGAUUGUCCGGUUGAUUUAAAUCCCGUCGUAGCCACCA
DNA 1: CAATCTGAATTCCGGTCTCCC
DNA 2: TGGTGGCTACGACGGGATT
B3: UCACAUG (DNA:RNA)
RNA: B1 RNA with G27A, C29A, A31G
DNA 1: CAATCTGAATTCCGGTCTCCC
DNA 2: TGGTGGCTACGACGGGATT
B4: UCUAACA (DNA:RNA)
RNA: B1 RNA with G27U, C28A, C29A, U30C
DNA 1: CAATCTGAATTCCGGTCTCCC
DNA 2: TGGTGGCTACGACGGGATT
B5: ACAUUUC (DNA:RNA)
RNA: B1 RNA with U25A, G27A, C28U, C29U, A31C
DNA 1: CAATCTGAATTCCGGTCTCCC
DNA 2: TGGTGGCTACGACGGGATT
B6: UUGAACU (DNA:RNA)
RNA: B1 RNA with C26U, C28A, C29A, U30C, A31U
DNA 1: CAATCTGAATTCCGGTCTCCC
DNA 2: TGGTGGCTACGACGGGATT
B7: AUACAAU (DNA:RNA)
RNA: B2 RNA with G25A, G26U, U27A, U28C, G29A
DNA 1: CAATCTGAATTCCGGTCTCCC
DNA 2: TGGTGGCTACGACGGGATT
B8: CUAAUUC (DNA:RNA)
RNA: B1 RNA with U25C, C26U, G27A, C28A, C29U, A31C
DNA 1: CAATCTGAATTCCGGTCTCCC
DNA 2: TGGTGGCTACGACGGGATT
B9: CUUCAUU (DNA:RNA)
RNA: B2 RNA with G25C, G26U, U28C, G29A, A30U
DNA 1: CAATCTGAATTCCGGTCTCCC
DNA 2: TGGTGGCTACGACGGGATT
B10: GUCUCGU (DNA:RNA)
RNA: B2 RNA with G26U, U27C, G29C, A30G
DNA 1: CAATCTGAATTCCGGTCTCCC
DNA 2: TGGTGGCTACGACGGGATT
B11: UAUGCAG (DNA:RNA)
RNA: B2 RNA with G25U, G26A, U28G, G29C, U31G
DNA 1: CAATCTGAATTCCGGTCTCCC
DNA 2: TGGTGGCTACGACGGGATT
B12: CCCAAGA (DNA:RNA)
RNA: B1 RNA with U25C, G27C, C28A, C29A, U30G
DNA 1: CAATCTGAATTCCGGTCTCCC
DNA 2: TGGTGGCTACGACGGGATT
B13: GACUUUG (DNA:RNA)
RNA: B2 RNA with G26A, U27C, G29U, A30U, U31G
DNA 1: CAATCTGAATTCCGGTCTCCC
DNA 2: TGGTGGCTACGACGGGATT
B14: UGAAGCG (DNA:RNA)
RNA: B2 RNA with G25U, U27A, U28A, A30C, U31G
DNA 1: CAATCTGAATTCCGGTCTCCC
DNA 2: TGGTGGCTACGACGGGATT
B15: UAUAACG (DNA:RNA)
RNA: B2 RNA with G25U, G26A, U28A, G29A, A30C, U31G
DNA 1: CAATCTGAATTCCGGTCTCCC
DNA 2: TGGTGGCTACGACGGGATT
B16: AGGACCC (DNA:RNA)
RNA: B1 RNA with U25A, C26G, C28A, U30C, A31C
DNA 1: CAATCTGAATTCCGGTCTCCC
DNA 2: TGGTGGCTACGACGGGATT
B17: CAGGUAG (DNA:RNA)
RNA: B2 RNA with G25C, G26A, U27G, U28G, G29U, U31G
DNA 1: CAATCTGAATTCCGGTCTCCC
DNA 2: TGGTGGCTACGACGGGATT
B18: UUCAAGA (DNA:RNA)
RNA: B1 RNA with C26U, G27C, C28A, C29A, U30G
DNA 1: CAATCTGAATTCCGGTCTCCC
DNA 2: TGGTGGCTACGACGGGATT
B19: ACAUUGU (DNA:RNA)
RNA: B2 RNA with G25A, G26C, U27A, G29U, A30G
DNA 1: CAATCTGAATTCCGGTCTCCC
DNA 2: TGGTGGCTACGACGGGATT
B20: GGUCAGG (DNA:RNA)
RNA: B2 RNA with U28C, G29A, A30G, U31G
DNA 1: CAATCTGAATTCCGGTCTCCC
DNA 2: TGGTGGCTACGACGGGATT
B21: GGUGGUG (DNA:RNA)
RNA: B2 RNA with U28G, A30U, U31G
DNA 1: CAATCTGAATTCCGGTCTCCC
DNA 2: TGGTGGCTACGACGGGATT
B22: UGUUAAA (DNA:RNA)
RNA: B2 RNA with G25U, G29A, U31A
DNA 1: CAATCTGAATTCCGGTCTCCC
DNA 2: TGGTGGCTACGACGGGATT
B23: UGUGGUG (DNA:RNA)
RNA: B2 RNA with G25U, U28G, A30U, U31G
DNA 1: CAATCTGAATTCCGGTCTCCC
DNA 2: TGGTGGCTACGACGGGATT
B24: ACGUCAU (DNA:RNA)
RNA: B2 RNA with G25A, G26C, U27G, G29C
DNA 1: CAATCTGAATTCCGGTCTCCC
DNA 2: TGGTGGCTACGACGGGATT
B25: CCCAGUU (DNA:RNA)
RNA: B2 RNA with G25C, G26C, U27C, U28A, A30U
DNA 1: CAATCTGAATTCCGGTCTCCC
DNA 2: TGGTGGCTACGACGGGATT
B26: AUUGCCG (DNA:RNA)
RNA: B2 RNA with G25A, G26U, U28G, G29C, A30C, U31G
DNA 1: CAATCTGAATTCCGGTCTCCC
DNA 2: TGGTGGCTACGACGGGATT
B27: UCGCUAG (DNA:RNA)
RNA: B1 RNA with C29U, U30A, A31G
DNA 1: CAATCTGAATTCCGGTCTCCC
DNA 2: TGGTGGCTACGACGGGATT
B28: GACUAUG (DNA:RNA)
RNA: B2 RNA with G26A, U27C, G29A, A30U, U31G
DNA 1: CAATCTGAATTCCGGTCTCCC
DNA 2: TGGTGGCTACGACGGGATT
B29: UGCCAAA (DNA:RNA)
RNA: B1 RNA with C26G, G27C, C29A, U30A
DNA 1: CAATCTGAATTCCGGTCTCCC
DNA 2: TGGTGGCTACGACGGGATT
B30: AUAACUA (DNA:RNA)
RNA: B1 RNA with U25A, C26U, G27A, C28A
DNA 1: CAATCTGAATTCCGGTCTCCC
DNA 2: TGGTGGCTACGACGGGATT
B31: CCAGGUG (DNA:RNA)
RNA: B1 RNA with U25C, G27A, C28G, C29G, A31G
DNA 1: CAATCTGAATTCCGGTCTCCC
DNA 2: TGGTGGCTACGACGGGATT

Changes are numbered by the printed parent chain; changes in the protein carry UniProt numbers. The list shows a part of the results.

For the experiment, the target named is T1, RBFOX1 RRM. Kind of experiment: EMSA; HiTS-Eq, 1 nM pool, 10 min; buffer printed only for the single-RNA assays: 10 mM Tris pH 7.5, 150 mM NaCl, 3.4 mM EDTA, 0.001% NP-40, 30 C. The following applies: tags: His6 N-terminal (pET28a); label: 5' 32P. The procedure, abridged:
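Purified RbFox RRM (wild type or mutant) was equilibrated for 10 min in 50 µL with 1 nM of a 5′-radiolabelled pool of RNA with 7 randomized nucleotides, its flanks annealed to DNA oligonucleotides, across increasing protein concentrations. Free RNA was separated by 8% native PAGE, excised, reverse-transcribed, PCR-barcoded and sequenced on an Illumina HiSeq 2500. Relative association constants came from read-count changes of each variant against the control reaction, normalised to the cognate motif.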
Background: A gel shift assay detects complexes by their altered migration in electrophoresis.
With B1, the binding signal is 0.00515 KA relative to UGCAUGU.

As for B2, the binding signal is 0.0204 KA relative to UGCAUGU.

For the molecule B3, the binding signal is 0.00586 KA relative to UGCAUGU.

With B4, the binding signal was 0.00358 KA relative to UGCAUGU.

In the case of B5, the binding signal was 0.000869 KA relative to UGCAUGU.

In the case of B6, the binding signal is 0.0126 KA relative to UGCAUGU.

For B7, the binding signal is 0.00133 KA relative to UGCAUGU.

Turning to B8, the binding signal is 0.00382 KA relative to UGCAUGU.

As for B9, the binding signal is 0.00423 KA relative to UGCAUGU.

Turning to B10, the binding signal was 0.0159 KA relative to UGCAUGU.

With B11, the binding signal was 0.011 KA relative to UGCAUGU.

On to B12, for which the binding signal was 0.00241 KA relative to UGCAUGU.

With B13, the binding signal is 0.0242 KA relative to UGCAUGU.

As for B14, the binding signal was 0.0192 KA relative to UGCAUGU.

As for B15, the binding signal was 0.00688 KA relative to UGCAUGU.

In the case of B16, the binding signal is 0.0139 KA relative to UGCAUGU.

On to B17, for which the binding signal was 0.0124 KA relative to UGCAUGU.

Regarding B18, the binding signal was 0.00554 KA relative to UGCAUGU.

Regarding B19, the binding signal was 0.00737 KA relative to UGCAUGU.

As for B20, the binding signal was 0.0068 KA relative to UGCAUGU.

Consider B21, for which the binding signal was 0.028 KA relative to UGCAUGU.

For the molecule B22, the binding signal was 0.0109 KA relative to UGCAUGU.

Consider B23, for which the binding signal was 0.0376 KA relative to UGCAUGU.

Consider B24, for which the binding signal was 0.00209 KA relative to UGCAUGU.

On to B25, for which the binding signal is 0.00652 KA relative to UGCAUGU.

Regarding B26, the binding signal is 0.0131 KA relative to UGCAUGU.

Consider B27, for which the binding signal was 0.0217 KA relative to UGCAUGU.

Turning to B28, the binding signal is 0.0187 KA relative to UGCAUGU.

B29: the binding signal is 0.0103 KA relative to UGCAUGU.

Regarding B30, the binding signal was 0.00149 KA relative to UGCAUGU.

On to B31, for which the binding signal was 0.0156 KA relative to UGCAUGU.
